Values marked as one replicate rest on one cluster of the flow cell; about a third of the high ones do not repeat.
Test system: ATP
Experiment: switch fluorescence ratio, 500 uM ATP over buffer (Cy3 cluster intensity, sum of 5 cycles each) (fold (ratio)); higher = stronger signal-on switching upon ATP binding; sequences stand for … in TCGTCGGCAGCGTCAGATGTGTATAAGAGACAGTTTTTTTTTTTTTTTTTTTTTTTTT…TC
Details: aptamer strand: ATP DNA aptamer (quencher-CACCTGGGGGAGTATTGCGGAGGAAGG + anchor), 100 nM annealed; ATP concentration: 500 uM; one replicate
Procedure, shortened: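 Per cluster, summed Cy3 intensity from the target cycles was divided by that from the buffer cycles to give the fluorescence ratio, then averaged per switch-domain sequence. Clusters outside 100-1000 RFU were excluded. The Cy3-labelled switching-strand clusters, on a modified Illumina MiSeq flow-cell, were annealed to 100 nM quencher-labelled ATP aptamer and imaged in selection buffer, then after 15 min with 500 uM ATP at 22 °C, for five cycles with NaOH stripping and re-annealing between them.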
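Further: ATP exposure 15 min at 22 °C before imaging.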

Row | Sequence | switch fluorescence ratio
1 | GAGTCAGTTA | 1.05
2 | TGCTCTAGGG | 1.01
3 | ACTACCGCTG | 1.46
4 | AATCGGAAGC | 0.985
5 | AACGCGTCGC | 0.976
6 | TCCGGGCGGC | 1.13
7 | CGGGTCTTTC | 0.99
8 | AGGGTAGTCA | 1.03
9 | TGGCGCAGGC | 1.14
10 | CTAACTTCAC | 1.2
11 | TATGTGTAGT | 0.996
12 | CGTTCCGTAT | 1.02
13 | TCTGGGCGGA | 0.965
14 | GGGGTACAAC | 0.962
15 | TCTGTTAGAC | 1.17
16 | AATGGTAAGA | 0.969
17 | TACATTTAGC | 1.02
18 | TACTGTTAGC | 1.05
19 | TTGTAGAATT | 1.01
20 | TCAGCCTCCC | 1.58
21 | AGGGAGCTAC | 1.42
22 | CAGAGAAATG | 0.974
23 | GTCATCAGTA | 0.975

Row | Sequence | switch fluorescence ratio
24 | ATTTCAATGA | 1.01
25 | CGTCCCTATA | 2.01
26 | GCTCTATTGG | 1.01
27 | GGTGTACAGG | 0.992
28 | TGTGCTCAAC | 1.03
29 | ACAATACTGG | 1.27
30 | GAGTACACGA | 1.05
31 | AATTATCGCT | 1.05
32 | TATCTGCATT | 1.17
33 | CAGAATTGCA | 1.01
34 | CAAACGGTCA | 0.985
35 | TAAGAACTTG | 1.01
36 | TTTAGTTCGA | 0.989
37 | AATAAACTAT | 1.02
38 | GGTCGTCGCA | 0.953
39 | GATCATAATT | 1
40 | ATGATTCAGG | 1
41 | AACTAGATAA | 1.02
42 | AGATTACCGG | 1.01
43 | TATCTTAAGC | 0.998
44 | TTCCGTTTGC | 1.46
45 | GCACCGACAG | 1.24
46 | ATGACTGCAG | 0.919

Row | Sequence | switch fluorescence ratio
47 | TCCAATTAAC | 1.06
48 | ATTTGGTTTG | 1.02
49 | AAGAAGATTG | 0.963
50 | AGTGACATGC | 1.09
51 | ACTATGTGTC | 1.12
52 | GTCCACGATG | 1.02
53 | GAAGGCAATA | 1.06
54 | GAGTTATGAG | 0.955
55 | TCGCGTCAAG | 1.04
56 | ATTGAAGCCG | 0.941
57 | CTTTGTTCGG | 1.01
58 | ATGTCCGTT | 0.938
59 | ATTGCGAATA | 0.978
60 | TCTCGGATCT | 0.991
61 | AGTTTAAGGT | 1.03
62 | TCGTCGTTGC | 0.956
63 | CCTCGGTGGC | 1.14
64 | GAGGGGCCC | 0.926
65 | TGTTTTCAAG | 0.996
66 | GCGTGTCGTG | 1.01
67 | CGGTCCATC | 1.04
68 | GTGATTGCAG | 0.989
69 | GGGCTCCCT | 1.02

Row | Sequence | switch fluorescence ratio
70 | GGGACGCTGT | 0.985
71 | TCGTAGAAAT | 1.73
72 | CTACTACCCC | 1.35
73 | GGTATACAGC | 1.02
74 | AAAAACGGTT | 0.968
75 | CCCTTGAGTC | 1.03
76 | CGGCCTCATC | 1.05
77 | CGTATGTCGA | 1.04
78 | CAAGCAAAAG | 1.51
79 | CCGAGTCATC | 2.26
80 | TAGGCCCGCC | 0.964
81 | TTTCTCAAGA | 1.04
82 | TGGACGTATT | 1.03
83 | GCGAAAAAGT | 0.981
84 | GTTACTCATT | 1.17
85 | TTCGCGCGAA | 0.985
86 | TAGGACCGGG | 0.991
87 | ATAAAGGGGC | 0.984
88 | ATCGGTTT | 0.993
89 | TAGTCCGGAG | 0.966
90 | GTTTAATAAC | 0.977
91 | CGTCGTTATC | 1.09
92 | CGTACACGTA | 1.01

Row | Sequence | switch fluorescence ratio
93 | TGGGTGGCTG | 1.16
94 | GTTGTTCATG | 0.989
95 | CACGGTGGCC | 0.982
96 | GAACCGGAG | 1.05
97 | TATATAGGTG | 1.17
98 | ATAAATTCGC | 0.946
99 | GATACTACGC | 1.32
100 | TCTACAATTC | 1.18
101 | ATGTATCGGA | 0.988
102 | GCTGAAAGTC | 0.979
103 | GAAGTGGCG | 1.03
104 | GAATGGTATT | 1.02
105 | TGTGGTGCTC | 0.968
106 | ATGATGCTTA | 1.01
107 | GTATTCGCTC | 1.05
108 | CTGGTTACG | 0.959
109 | TGTATCTGGA | 1.04
110 | TATGGCAGAC | 1.14
111 | CGTTTGAGCG | 0.943
112 | TCTTTCTCTC | 1.05
113 | TATGTCTTGT | 0.974
114 | GGCCCCTAGA | 0.993
115 | CCGGACAAGG | 1.05

Row | Sequence | switch fluorescence ratio
116 | TCTACTAGTG | 0.974
117 | GTATCTTAGT | 1.01
118 | GATCAACAGC | 1.01
119 | GCTTCAAGTA | 0.978
120 | TACAGGAGTC | 0.98
121 | TAAGGTACCA | 0.997
122 | GTCAATTG | 1.02
123 | CGATTCCAAT | 1.04
124 | CTCGTTCTAC | 1.2
125 | CGGAGACAGT | 1.07
126 | GATGGGTTGC | 0.971
127 | TCTAATGAAG | 1.01
128 | CTGTGTACGT | 1
129 | CTGGCTTATA | 0.996
130 | CGGATTCATT | 1
131 | CATATTGAAA | 1.01
132 | GCATGTCACA | 1.01
133 | GGAACTACGG | 1.04
134 | GACTCCCTGA | 1.22
135 | GACAAAAAGC | 0.998
136 | CGTAATGGAT | 0.99
137 | TATACA | 0.976
138 | TGATGGGCCG | 0.948

Row | Sequence | switch fluorescence ratio
139 | AGAGGGGCAT | 0.979
140 | TTGCAGCCCG | 0.989
141 | AAAACTGAAA | 0.973
142 | TAACCTTACC | 1.57
143 | GGAGGTCGTA | 1.06
144 | ATGGCGCGGC | 1.07
145 | TTTCTTATAC | 2.09
146 | TAGGTCATTA | 1
147 | CTGGCAGTCA | 1.05
148 | TTAACGGCCA | 1.01
149 | CTAGGGAGTT | 0.977
150 | GGCTCACCT | 1.13
151 | ATTTGAATCT | 1.04
152 | GGCTTAACAT | 0.979
153 | CGGAATCTTA | 1.02
154 | ACGGTTCTCA | 0.995
155 | AGGTTCCCAT | 0.991
156 | CCTTTAATCT | 1.04
157 | GGTACGTGGG | 0.986

— the supplement of paper PMC10126150
